Measured values reported in the BET-seq Pho4 binding data (Le et al. 2018).
The list shows a part of the results. These are noisy estimates, calculated here from bound and input reads.

These sequences were tested against T1, Pho4 (S. cerevisiae) (UniProt P07270) (assay: relative binding free energy (BET-seq); higher = weaker binding). Conditions: reference: library average.
T1 sequence: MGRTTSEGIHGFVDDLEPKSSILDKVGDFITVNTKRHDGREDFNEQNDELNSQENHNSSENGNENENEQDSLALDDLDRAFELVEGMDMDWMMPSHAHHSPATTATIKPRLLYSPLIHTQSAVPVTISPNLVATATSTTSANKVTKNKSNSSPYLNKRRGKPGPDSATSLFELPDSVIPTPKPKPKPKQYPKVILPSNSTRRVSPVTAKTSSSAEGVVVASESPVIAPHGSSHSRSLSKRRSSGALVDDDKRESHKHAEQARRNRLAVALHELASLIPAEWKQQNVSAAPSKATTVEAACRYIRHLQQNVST
For TGCTTCACGTGGTGGT, the “relative binding free energy” value was 0.24 kcal/mol.
AAGTGCACGTGGGCGC was tested, and the “relative binding free energy” value was -0.08 kcal/mol.
With TGGTCCACGTGTTTAA the “relative binding free energy” value was -0.04 kcal/mol.
With CAAGGCACGTGGGTAT the “relative binding free energy” value was -0.31 kcal/mol.
With GGAGGCACGTGGAGGC the “relative binding free energy” value was -0.13 kcal/mol.
With GGATCCACGTGTTTGT the “relative binding free energy” value was 0.08 kcal/mol.
ATAATCACGTGCTGGG was tested, and the “relative binding free energy” value was 0.02 kcal/mol.
GTGGGCACGTGGCGAC was tested, and the “relative binding free energy” value was -0.18 kcal/mol.
GGGAACACGTGTTATG was tested, and the “relative binding free energy” value was 0.09 kcal/mol.
AGCTTCACGTGAAGGA was tested, and the “relative binding free energy” value was 0.62 kcal/mol.
For GGCGGCACGTGAGTTC, the “relative binding free energy” value was 0.46 kcal/mol.
In the case of TGGATCACGTGGAGAG, the “relative binding free energy” value is reported as 0.14 kcal/mol.
ATTAGCACGTGCGGTG was tested, and the “relative binding free energy” value was -0.04 kcal/mol.
GATGACACGTGGGTGA was tested, and the “relative binding free energy” value was -0.09 kcal/mol.
AAGTGCACGTGGGCAG was tested, and the “relative binding free energy” value was -0.24 kcal/mol.
For AGACTCACGTGGGAGT, the “relative binding free energy” value was 0 kcal/mol.
In the case of GCTATCACGTGGGTAG, the “relative binding free energy” value is reported as 0.09 kcal/mol.
For TGTTACACGTGGGTGC, the “relative binding free energy” value was 0.05 kcal/mol.
For CGTTTCACGTGAAATT, the “relative binding free energy” value was 0.45 kcal/mol.
In the case of CTGGGCACGTGGGCAG, the “relative binding free energy” value is reported as -0.19 kcal/mol.
GTGCGCACGTGTCCGG was tested, and the “relative binding free energy” value was 0.04 kcal/mol.
With TTACTCACGTGGTTAT the “relative binding free energy” value was 0.04 kcal/mol.
In the case of TGAACCACGTGGCGTG, the “relative binding free energy” value is reported as 0.04 kcal/mol.
For GGTATCACGTGGTTTC, the “relative binding free energy” value was 0.1 kcal/mol.
For GGATACACGTGTATTG, the “relative binding free energy” value was -0.02 kcal/mol.
For ATCTTCACGTGTGTTG, the “relative binding free energy” value was 0.15 kcal/mol.
With TTTTTCACGTGGGGTA the “relative binding free energy” value was 0.21 kcal/mol.
In the case of TGTACCACGTGTGAGT, the “relative binding free energy” value is reported as -0.09 kcal/mol.
In the case of GCGATCACGTGTATGG, the “relative binding free energy” value is reported as 0.06 kcal/mol.
ATGTGCACGTGTGCGT was tested, and the “relative binding free energy” value was -0.02 kcal/mol.
With AAGCGCACGTGTCGGT the “relative binding free energy” value was 0.09 kcal/mol.
In the case of AGTGCCACGTGAGTGA, the “relative binding free energy” value is reported as 0.08 kcal/mol.
GTATGCACGTGAGGGA was tested, and the “relative binding free energy” value was 0.22 kcal/mol.
In the case of TTGTGCACGTGTAGAA, the “relative binding free energy” value is reported as 0.14 kcal/mol.
For CTTGGCACGTGGCGTG, the “relative binding free energy” value was -0.25 kcal/mol.
For AGTTGCACGTGCATTG, the “relative binding free energy” value was 0.08 kcal/mol.
With GGGTGCACGTGGGTGA the “relative binding free energy” value was -0.21 kcal/mol.
With GTCGGCACGTGTCTGG the “relative binding free energy” value was -0.06 kcal/mol.
With TTTTTCACGTGCATTG the “relative binding free energy” value was 0.2 kcal/mol.
With TGCTGCACGTGAGTGC the “relative binding free energy” value was 0.2 kcal/mol.
In the case of AAGTGCACGTGGGTCA, the “relative binding free energy” value is reported as -0.26 kcal/mol.
For AGTAGCACGTGACGTG, the “relative binding free energy” value was -0.1 kcal/mol.
With CGTGACACGTGGGGGA the “relative binding free energy” value was -0.17 kcal/mol.
With TTATGCACGTGAGAGC the “relative binding free energy” value was 0.33 kcal/mol.
CTTGCCACGTGAGGGG was tested, and the “relative binding free energy” value was 0.06 kcal/mol.
For TGATACACGTGCATTG, the “relative binding free energy” value was 0.07 kcal/mol.
For AAAGGCACGTGGAGCT, the “relative binding free energy” value was -0.08 kcal/mol.
With ACAGACACGTGTGGTA the “relative binding free energy” value was 0.19 kcal/mol.
With TATTTCACGTGCTTAG the “relative binding free energy” value was 0.17 kcal/mol.
GGGAACACGTGGGGTA was tested, and the “relative binding free energy” value was -0.15 kcal/mol.
AGGTCCACGTGGGGCT was tested, and the “relative binding free energy” value was -0.19 kcal/mol.
In the case of CGATTCACGTGTGTTA, the “relative binding free energy” value is reported as 0.33 kcal/mol.
In the case of TATTTCACGTGGTGTT, the “relative binding free energy” value is reported as 0.25 kcal/mol.
For GGTGTCACGTGTATGA, the “relative binding free energy” value was 0.15 kcal/mol.
GGGGGCACGTGCGAGT was tested, and the “relative binding free energy” value was -0.07 kcal/mol.
TTTAACACGTGGATGT was tested, and the “relative binding free energy” value was -0.1 kcal/mol.
For GTGGACACGTGCTTTT, the “relative binding free energy” value was 0 kcal/mol.
With AAGTGCACGTGCCGGT the “relative binding free energy” value was -0.06 kcal/mol.
With GTGAGCACGTGGTCTT the “relative binding free energy” value was -0.01 kcal/mol.
In the case of TTGGTCACGTGGTTGT, the “relative binding free energy” value is reported as 0.12 kcal/mol.
With ATGTTCACGTGAGTAG the “relative binding free energy” value was 0.21 kcal/mol.
In the case of AGCGGCACGTGGCGGT, the “relative binding free energy” value is reported as -0.23 kcal/mol.
TTAATCACGTGTGGAA was tested, and the “relative binding free energy” value was 0.21 kcal/mol.
For TGTACCACGTGCTGGG, the “relative binding free energy” value was -0.22 kcal/mol.
For GAGGGCACGTGGTAAA, the “relative binding free energy” value was -0.04 kcal/mol.
For TTACGCACGTGGTGAA, the “relative binding free energy” value was 0.01 kcal/mol.
In the case of ATTGGCACGTGGGATG, the “relative binding free energy” value is reported as -0.16 kcal/mol.
With TAGTGCACGTGCAATG the “relative binding free energy” value was -0.03 kcal/mol.
ATGTTCACGTGTAGGG was tested, and the “relative binding free energy” value was 0.24 kcal/mol.
For AATGCCACGTGTTGTG, the “relative binding free energy” value was -0.03 kcal/mol.
For AGAGGCACGTGATGTA, the “relative binding free energy” value was -0.02 kcal/mol.
TTAAGCACGTGTGTGG was tested, and the “relative binding free energy” value was -0.04 kcal/mol.
With GGCTGCACGTGTGTGT the “relative binding free energy” value was 0.16 kcal/mol.
With TAAGTCACGTGGGAAA the “relative binding free energy” value was 0.13 kcal/mol.
With AGTGTCACGTGTGTTG the “relative binding free energy” value was -0.01 kcal/mol.
For TTAGTCACGTGCGTTA, the “relative binding free energy” value was 0.18 kcal/mol.
With TAGTTCACGTGGTATT the “relative binding free energy” value was 0.21 kcal/mol.
With AGGTACACGTGATCGG the “relative binding free energy” value was 0.06 kcal/mol.
CGGTTCACGTGGTCGT was tested, and the “relative binding free energy” value was 0.18 kcal/mol.
In the case of TGTCACACGTGAGGTT, the “relative binding free energy” value is reported as 0.26 kcal/mol.
For ATGCACACGTGTTGGG, the “relative binding free energy” value was 0.04 kcal/mol.
With GGTGGCACGTGGTCGC the “relative binding free energy” value was -0.27 kcal/mol.
GGTGTCACGTGCGAGT was tested, and the “relative binding free energy” value was 0.08 kcal/mol.
For AATGTCACGTGGATGG, the “relative binding free energy” value was 0.06 kcal/mol.
For TTGTACACGTGGCCGT, the “relative binding free energy” value was -0.08 kcal/mol.
For GGTTTCACGTGATATC, the “relative binding free energy” value was 0.44 kcal/mol.
For TTAAACACGTGGGTCT, the “relative binding free energy” value was -0.01 kcal/mol.
In the case of GGTTGCACGTGGCTGG, the “relative binding free energy” value is reported as 0.01 kcal/mol.
In the case of ATTGGCACGTGCGGCG, the “relative binding free energy” value is reported as -0.21 kcal/mol.
For TGGTTCACGTGTAGCT, the “relative binding free energy” value was 0.19 kcal/mol.
For CTGGACACGTGGATTG, the “relative binding free energy” value was 0.03 kcal/mol.
In the case of TAGGGCACGTGCCAGG, the “relative binding free energy” value is reported as -0.14 kcal/mol.
With TTTCTCACGTGGCTAT the “relative binding free energy” value was 0.22 kcal/mol.
With TGAGGCACGTGACTGT the “relative binding free energy” value was -0.19 kcal/mol.
For TTGGGCACGTGCGTGA, the “relative binding free energy” value was -0.18 kcal/mol.
With GCAAGCACGTGGGAGT the “relative binding free energy” value was -0.21 kcal/mol.
With GAGGGCACGTGAAGAT the “relative binding free energy” value was 0.19 kcal/mol.
For TGACGCACGTGTATTT, the “relative binding free energy” value was 0.05 kcal/mol.
For AAGAGCACGTGTTGGT, the “relative binding free energy” value was -0.07 kcal/mol.
With TAGGTCACGTGGGCAT the “relative binding free energy” value was -0.01 kcal/mol.
TATGTCACGTGTAATA was tested, and the “relative binding free energy” value was -0.05 kcal/mol.
TGTTACACGTGAAGTA was tested, and the “relative binding free energy” value was 0.29 kcal/mol.
In the case of TTGTACACGTGACGGA, the “relative binding free energy” value is reported as 0.2 kcal/mol.
For ATATTCACGTGTGGTG, the “relative binding free energy” value was 0.23 kcal/mol.
With GGTCGCACGTGGTTTT the “relative binding free energy” value was -0.02 kcal/mol.
ATTATCACGTGGGTAC was tested, and the “relative binding free energy” value was 0.04 kcal/mol.
GTCGGCACGTGGTGTG was tested, and the “relative binding free energy” value was -0.14 kcal/mol.
With GACGTCACGTGGGAGT the “relative binding free energy” value was 0.1 kcal/mol.
For CTTAACACGTGTGTTT, the “relative binding free energy” value was 0.02 kcal/mol.
In the case of GGGTCCACGTGATAGG, the “relative binding free energy” value is reported as 0.25 kcal/mol.
With CTATTCACGTGATTTG the “relative binding free energy” value was 0.35 kcal/mol.
For GCGTTCACGTGATGTA, the “relative binding free energy” value was 0.24 kcal/mol.
For CATAGCACGTGTTGTG, the “relative binding free energy” value was -0.18 kcal/mol.
TTTTACACGTGTTTTT was tested, and the “relative binding free energy” value was 0.23 kcal/mol.
In the case of AGCGGCACGTGTTAGT, the “relative binding free energy” value is reported as -0.07 kcal/mol.
